Measurements as given in PubChem BioAssay AID1863 (Southern Research Specialized Biocontainment Screening …, 2009).
Out of some 300,000 compounds screened, about 480 (0.16%) were called active. Inconclusive means that the source gave no clear call. Such entries were picked first, then a sample of the others.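 The calls were made as follows: active = inhibition over 29.93%, a cutoff 3 SD above the screen mean, later confirmed by dose response; inconclusive = inhibition over 29.93% but no dose response follow-up; inactive = inhibition at most 29.93% or unconfirmed.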

Assay: inhibitors of PhoP regulon expression, primary screen, Salmonella Typhimurium, GFP reporter (AID 1863);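 also: 0% = low Mg2+ inducing control and 100% = high Mg2+ repressing control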
Conditions: S. Typhimurium PhoP-regulated promoter GFP reporter, 4 h; at 50 µM; active compounds read high
For `C=CC[n+]1ccc(/C=C2\C=Cc3cc(C)ccc3N2CC)c2ccccc21`, the inhibition was inconclusive: 158%.
In the case of `Cc1ccc(Nc2nnc(SC/C(O)=C(\C#N)c3nc4ccccc4[nH]3)s2)c(C)c1`, the inhibition is reported as inconclusive: 49.6%.
For `CC1CC(=O)c2c(cc3c(-c4c(O)cc(O)c5c(O)c6c(cc45)OC(C)CC6=O)c(O)cc(O)c3c2O)O1` (stereo not drawn), the inhibition was inconclusive: 30.1%.
With `C[N+]1(C2CCC3CCCC2C3O)CCCC1` (stereo not drawn) the inhibition was inconclusive: 31.1%.
In the case of `COc1ccc(N(C(=O)CNC(=O)c2cccs2)C(C(=O)NC2CCCC2)c2ccncc2)cc1` (stereo not drawn), the inhibition is reported as inactive: -0.95%.
For `O=C(Cn1nc(CNc2ccc(Br)cc2)[n+]2c1CCCCC2)c1ccc([N+](=O)[O-])cc1`, the inhibition was inactive: 5.85%.
For `Cc1cc(C)n(CC(=O)N/N=C/c2cc([N+](=O)[O-])ccc2O)n1`, the inhibition was inconclusive: 74.5%.
In the case of `CN(C(=S)Nc1ccc(SC(F)F)cc1)c1ccc(O)cc1`, the inhibition is reported as inconclusive: 45.4%.
In the case of `C/C(=N\OCC(=O)Nc1ccc2c(c1)OCCO2)c1ccc2c(c1)OCCO2`, the inhibition is reported as inconclusive: 33.9%.
In the case of `NC(N)=NC(=S)Nc1ccc(Cl)cc1`, the inhibition is reported as inactive: -3.56%.
In the case of `CC(C)(c1ccccc1)c1ccc(OCC(O)CNC2CCN(Cc3ccccc3)CC2)cc1` (stereo not drawn), the inhibition is reported as inconclusive: 32.7%.
In the case of `Nc1c2c(nc3ccc(Br)cc13)N(Cc1ccccc1)CC2`, the inhibition is reported as inconclusive: 32.8%.
For `c1ccc(-n2nnnc2NC2CCCCC2)cc1`, the inhibition was inconclusive: 33.9%.
In the case of `S=C(NCCc1ccccc1)NCCc1ccccc1`, the inhibition is reported as inconclusive: 37%.
For `CC(=O)NC(=S)NNC(=O)c1ccc(Br)cc1`, the inhibition was inconclusive: 60%.
In the case of `CCOC(=O)c1cnc2ccc(C)cc2c1Sc1ccc(F)cc1`, the inhibition is reported as inconclusive: 32.1%.
In the case of `CC(C)c1ccc2c(c1)CCC1C(C)(CN)CCCC21C` (stereo not drawn), the inhibition is reported as inconclusive: 74%.
With `Clc1cccc2c1Sc1ccccc1CC2N1CCNCC1` (stereo not drawn) the inhibition was inconclusive: 95.7%.
For `COc1ccccc1-c1cc(C(F)(F)F)nc(S(=O)(=O)CCCC(=O)Nc2cc(C)on2)n1`, the inhibition was inconclusive: 32.6%.
With `COc1cccc(/C=N/Nc2ncnc(Cl)c2N)c1O` the inhibition was inconclusive: 116%.
In the case of `O=C(CCC(=O)OCc1ccc(C(=O)Oc2ccc(Cl)cc2)cc1)Nc1ccccc1`, the inhibition is reported as inconclusive: 34.3%.
In the case of `Cc1nn(-c2ccccc2)c(C)c1/C=N/Nc1nc2ccccc2[nH]1`, the inhibition is reported as inconclusive: 34%.
With `O=C(Cn1ccc([N+](=O)[O-])n1)Nc1nccs1` the inhibition was inconclusive: 42.3%.
For `O=C1OCc2cc(NC(=O)C3CCCO3)ccc21` (stereo not drawn), the inhibition was inactive: 13.1%.
In the case of `CC1(C)N=C(N)N=C(N)N1c1ccc(OCCCOc2ccccc2)c(Cl)c1`, the inhibition is reported as inconclusive: 73.5%.
With `O=C(NNC(=S)Nc1cccc(C(F)(F)F)c1)c1cccc(Cl)c1` the inhibition was inconclusive: 40.2%.
With `O=C(O)c1cc2ccc3cccc4ccc(c1)c2c34` the inhibition was inactive: 7.13%.
With `CCCC(=O)NC(c1ccco1)c1cc([N+](=O)[O-])c2cccnc2c1O` (stereo not drawn) the inhibition was inconclusive: 58.1%.
For `Cn1cccc1-c1nc2ccc(NC(=O)c3ccc([N+](=O)[O-])cc3)cc2[nH]1`, the inhibition was inconclusive: 33.2%.
With `CCC(=O)NC(=S)Nc1ccc(N2CCN(C(=O)c3ccc(Cl)cc3)CC2)cc1` the inhibition was inactive: 2.66%.
With `Nc1nn(-c2ccccc2)c(N)c1N=Nc1ccc2c(c1)OCO2` the inhibition was inconclusive: 41%.
With `CCOc1ccc(NC(=S)N2CCC(C(O)(c3ccccc3)c3ccccc3)CC2)cc1` the inhibition was inconclusive: 30.9%.
In the case of `Cc1cc(C)nc(/N=C(\N)N(Cc2ccccc2)Cc2ccccc2)n1`, the inhibition is reported as inactive: -3.9%.
For `Cc1ccccc1-n1c(SCC(=O)N/N=C/c2sccc2C)nc2ccccc2c1=O`, the inhibition was inactive: -15.1%.
With `Oc1ccc2ccccc2c1N=Nc1nccs1` the inhibition was inconclusive: 12.9%.
In the case of `COc1ccc(NCC(O)COc2ccc(C(C)(C)C)cc2)cc1` (stereo not drawn), the inhibition is reported as inactive: 18.9%.
In the case of `CCN(CC)c1ccc(/C=N/NC(=O)c2cccc(S(=O)(=O)Nc3ccccc3OC)c2)c(O)c1`, the inhibition is reported as inconclusive: 41.9%.
For `Nc1ccc2c(c1)C(=O)c1ccccc1C2=O`, the inhibition was inactive: 8.76%.
With `COCCNCC(O)CON=C1c2ccccc2-c2ccccc21` (stereo not drawn) the inhibition was inactive: -2.34%.
With `O=S(=O)(Nc1nccs1)c1cnc(Cl)c(Br)c1` the inhibition was inactive: -2.83%.
With `Cc1ccc(Nc2nc(N)c([N+](=O)[O-])c(NCc3ccccc3)n2)cc1` the inhibition was inactive: -2.58%.
With `CN1/C(=C\C=O)C(C)(C)c2ccccc21` the inhibition was inactive: 4.13%.
With `c1ccc2c(c1)CSc1sccc1C2=C1CCNCC1` the inhibition was inconclusive: 37.8%.
With `CC(=O)N1C=Cc2c(c(C)c3c([nH]c4ccccc43)c2C)C1` the inhibition was inconclusive: 92.2%.
For `CC1CCCCN1C(=O)C12CCC(C)(/C(=N/O)C1)C2(C)C` (stereo not drawn), the inhibition was inconclusive: 34%.
For `COc1ccc(/C(C)=N/NC(=O)CCC(=O)Nc2ccc(Cl)cc2Cl)c(OC)c1`, the inhibition was inconclusive: 31.3%.
In the case of `Cc1cc(C)nc(SCc2ccc(C(=O)N/N=C/c3cccc(O)c3O)cc2)n1`, the inhibition is reported as inconclusive: 32%.
For `COc1ccc2[nH]cc(/C=N/NS(=O)(=O)c3ccc(C)cc3)c2c1`, the inhibition was inactive: -5.48%.
In the case of `Cc1cccc(CN2CCN(CC(=O)O)C2=O)c1`, the inhibition is reported as inconclusive: 32.8%.
With `O=C(OC(c1ccc(NS(=O)(=O)c2ccccc2)cc1)(C(F)(F)F)C(F)(F)F)c1ccccc1` the inhibition was inconclusive: 38.5%.
With `O=c1[nH]c(=O)n([C@H]2C[C@H](O)[C@@H](CO)O2)cc1F` the inhibition was inconclusive: 91.7%.
In the case of `O=C(Nc1ccc(N2CCCC2)cc1)c1ccc2ccccc2c1`, the inhibition is reported as inconclusive: 33%.
In the case of `COc1cc(/C=C/C(=O)O)ccc1O`, the inhibition is reported as inactive: -9.92%.
In the case of `Cc1ccc(Nc2cc(C)nn2-c2nc(C)cc(C)n2)cc1`, the inhibition is reported as inactive: 14.5%.
In the case of `Cc1ccc2c(c1)C(c1ccncc1)=NNC(c1ccc(C(C)C)cc1)=N2`, the inhibition is reported as inconclusive: 31.3%.
With `CCN(CC)Cc1cc2[nH]c3c4ccc(Cl)cc4ncc3c2cc1OC` the inhibition was inconclusive: 32.5%.
With `C(#Cc1ccccc1)C[N+]1(CC#Cc2cccc3ccccc23)CCCC1` the inhibition was inconclusive: 40.4%.
For `CC(C)CCNC(=O)C12CN(Cc3ccccc3)CC1C(c1ccc([N+](=O)[O-])cc1)=NO2` (stereo not drawn), the inhibition was inactive: 16.1%.
